# Reference: the supplement of paper PMC8728848
# The other results are listed elsewhere or left out.
# B1: SRA-1 (Homo sapiens), P21757 (protein)
# chain: MEQWDHFHNQQEDTDSCSESVKFDARSMTALLPPNPKNSPSLQEKLKSFKAALIALYLLVFAVLIPLIGIVAAQLLKWETKNCSVSSTNANDITQSLTGKGNDSEEEMRFQEVFMEHMSNMEKRIQHILDMEANLMDTEHFQNFSMTTDQRFNDILLQLSTLFSSVQGHGNAIDEISKSLISLNTTLLDLQLNIENLNGKIQENTFKQQEEISKLEERVYNVSAEIMAMKEEQVHLEQEIKGEVKVLNNITNDLRLKDWEHSQTLRNITLIQGPPGPPGEKGDRGPTGESGPRGFPGPIGPPGLKGDRGAIGFPGSRGLPGYAGRPGNSGPKGQKGEKGSGNTLTPFTKVRLVGGSGPHEGRVEILHSGQWGTICDDRWEVRVGQVVCRSLGYPGVQAVHKAAHFGQGTGPIWLNEVFCFGRESSIEECKIRQWGTRACSHSEDAGVTCTL
# Columns and labels:
# Test in all cases: glycan array binding signal (z-score within array); higher = stronger binding
# Details in all cases: glycan notation: IUPAC condensed, linker removed
# [1] = target: GlcNAc(a1-3)Gal(b1-4)GlcNAc
# Summary of the method: (§1)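 Glycan array binding is given as a within-array Z-score, which can be read as non-binding when negative. The arrays, 3228 of them, came from the Consortium for Functional Glycomics database and were retained only where the protein sequence was available. Z-scores were averaged across arrays of the same protein sequence at different concentrations or buffers and across linkers.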
# [2] = target: GlcNAc(a1-4)Gal(b1-3)GlcNAc
# Summary of the method: as §1
# [3] = target: GlcNAc(a1-4)Gal(b1-4)GalNAc
# Summary of the method: as §1
# [4] = target: GlcNAc(a1-4)Gal(b1-4)GlcNAc
# Summary of the method: as §1
# [5] = target: GlcNAc(a1-4)Gal(b1-4)GlcNAc(b1-3)Gal(b1-4)Glc
# Summary of the method: as §1
# [6] = target: GlcNAc(a1-4)Gal(b1-4)GlcNAc(b1-3)Gal(b1-4)GlcNAc
# Summary of the method: as §1
# [7] = target: GlcNAc(a1-4)Gal(b1-4)GlcNAc(b1-3)Gal(b1-4)GlcNAc(b1-3)Gal(b1-4)GlcNAc
# Summary of the method: as §1
# [8] = target: GlcNAc(a1-4)Gal(b1-4)GlcNAc(b1-3)Gal(b1-4)[Fuc(a1-3)]GlcNAc(b1-3)Gal(b1-4)[Fuc(a1-3)]GlcNAc
# Summary of the method: as §1
# [9] = target: GlcNAc(a1-6)Gal(b1-4)GlcNAc
# Summary of the method: as §1
# [10] = target: GlcNAc(b1-2)Gal(b1-3)GalNAc
# Summary of the method: as §1
# [11] = target: GlcNAc(b1-2)Man(a1-3)[GlcNAc(b1-2)Man(a1-6)]Man(b1-4)GlcNAc(b1-4)GlcNAc
# Summary of the method: as §1
# [12] = target: GlcNAc(b1-2)Man(a1-3)[GlcNAc(b1-2)Man(a1-6)]Man(b1-4)GlcNAc(b1-4)[Fuc(a1-6)]GlcNAc
# Summary of the method: as §1
# [13] = target: GlcNAc(b1-2)Man(a1-3)[GlcNAc(b1-4)][GlcNAc(b1-2)Man(a1-6)]Man(b1-4)GlcNAc(b1-4)GlcNAc
# Summary of the method: as §1
# [14] = target: GlcNAc(b1-2)Man(a1-3)[GlcNAc(b1-4)][GlcNAc(b1-2)Man(a1-6)]Man(b1-4)GlcNAc(b1-4)[Fuc(a1-6)]GlcNAc
# Summary of the method: as §1
# [15] = target: GlcNAc(b1-2)[GlcNAc(b1-4)]Man(a1-3)[GlcNAc(b1-2)Man(a1-6)]Man(b1-4)GlcNAc(b1-4)GlcNAc
# Summary of the method: as §1
# [16] = target: GlcNAc(b1-2)[GlcNAc(b1-4)]Man(a1-3)[GlcNAc(b1-4)][GlcNAc(b1-2)Man(a1-6)]Man(b1-4)GlcNAc(b1-4)GlcNAc
# Summary of the method: as §1
# [17] = target: GlcNAc(b1-2)[GlcNAc(b1-4)]Man(a1-3)[GlcNAc(b1-4)][GlcNAc(b1-2)[GlcNAc(b1-6)]Man(a1-6)]Man(b1-4)GlcNAc(b1-4)GlcNAc
# Summary of the method: as §1
# [18] = target: GlcNAc(b1-2)[GlcNAc(b1-4)]Man(a1-3)[GlcNAc(b1-4)][GlcNAc(b1-2)[GlcNAc(b1-6)]Man(a1-6)]Man(b1-4)GlcNAc(b1-4)[Fuc(a1-6)]GlcNAc
# Summary of the method: as §1
# [19] = target: GlcNAc(b1-2)[GlcNAc(b1-6)]Man(a1-6)[GlcNAc(b1-2)Man(a1-3)]Man(b1-4)GlcNAc(b1-4)GlcNAc
# Summary of the method: as §1
# [20] = target: GlcNAc(b1-2)[GlcNAc(b1-6)]Man(a1-6)[GlcNAc(b1-2)Man(a1-3)]Man(b1-4)GlcNAc(b1-4)[Fuc(a1-6)]GlcNAc
# Summary of the method: as §1
# [21] = target: GlcNAc(b1-2)[GlcNAc(b1-6)]Man(a1-6)[GlcNAc(b1-4)][GlcNAc(b1-2)Man(a1-3)]Man(b1-4)GlcNAc(b1-4)GlcNAc
# Summary of the method: as §1
# GlcNAc(b1-3)Fuc = target: GlcNAc(b1-3)Fuc
# Summary of the method: as §1
# GlcNAc(b1-3)Gal = target: GlcNAc(b1-3)Gal
# Summary of the method: as §1
# [22] = target: GlcNAc(b1-3)Gal(b1-3)GalNAc
# Summary of the method: as §1
# GlcNAc(b1-3)Gal(b1-4)Glc = target: GlcNAc(b1-3)Gal(b1-4)Glc
# Summary of the method: as §1
# [23] = target: GlcNAc(b1-3)Gal(b1-4)GlcNAc
# Summary of the method: as §1
# [24] = target: GlcNAc(b1-3)Gal(b1-4)GlcNAc(b1-2)Man(a1-3)[GlcNAc(b1-3)Gal(b1-4)GlcNAc(b1-2)Man(a1-6)]Man(b1-4)GlcNAc(b1-4)GlcNAc
# Summary of the method: as §1
# [25] = target: GlcNAc(b1-3)Gal(b1-4)GlcNAc(b1-2)Man(a1-3)[GlcNAc(b1-3)Gal(b1-4)GlcNAc(b1-2)Man(a1-6)]Man(b1-4)GlcNAc(b1-4)[Fuc(a1-6)]GlcNAc
# Summary of the method: as §1
# [26] = target: GlcNAc(b1-3)Gal(b1-4)GlcNAc(b1-2)[GlcNAc(b1-3)Gal(b1-4)GlcNAc(b1-6)]Man(a1-6)[GlcNAc(b1-3)Gal(b1-4)GlcNAc(b1-2)Man(a1-3)]Man(b1-4)GlcNAc(b1-4)GlcNAc
# Summary of the method: as §1
# [27] = target: GlcNAc(b1-3)Gal(b1-4)GlcNAc(b1-3)Gal(b1-4)GlcNAc
# Summary of the method: as §1
# [28] = target: GlcNAc(b1-3)Gal(b1-4)GlcNAc(b1-3)Gal(b1-4)GlcNAc(b1-2)Man(a1-3)[GlcNAc(b1-3)Gal(b1-4)GlcNAc(b1-3)Gal(b1-4)GlcNAc(b1-2)Man(a1-6)]Man(b1-4)GlcNAc(b1-4)GlcNAc
# Summary of the method: as §1
# [29] = target: GlcNAc(b1-3)Gal(b1-4)GlcNAc(b1-3)Gal(b1-4)GlcNAc(b1-2)Man(a1-3)[GlcNAc(b1-3)Gal(b1-4)GlcNAc(b1-3)Gal(b1-4)GlcNAc(b1-2)Man(a1-6)]Man(b1-4)GlcNAc(b1-4)[Fuc(a1-6)]GlcNAc
# Summary of the method: as §1
# [30] = target: GlcNAc(b1-3)Gal(b1-4)GlcNAc(b1-3)Gal(b1-4)GlcNAc(b1-2)[GlcNAc(b1-3)Gal(b1-4)GlcNAc(b1-3)Gal(b1-4)GlcNAc(b1-6)]Man(a1-6)[GlcNAc(b1-3)Gal(b1-4)GlcNAc(b1-3)Gal(b1-4)GlcNAc(b1-2)Man(a1-3)]Man(b1-4)GlcNAc(b1-4)[Fuc(a1-6)]GlcNAc
# Summary of the method: as §1
# [31] = target: GlcNAc(b1-3)Gal(b1-4)GlcNAc(b1-3)Gal(b1-4)GlcNAc(b1-3)Gal(b1-4)GlcNAc(b1-2)Man(a1-3)[GlcNAc(b1-3)Gal(b1-4)GlcNAc(b1-3)Gal(b1-4)GlcNAc(b1-3)Gal(b1-4)GlcNAc(b1-2)Man(a1-6)]Man(b1-4)GlcNAc(b1-4)GlcNAc
# Summary of the method: as §1
# [32] = target: GlcNAc(b1-3)Gal(b1-4)GlcNAc(b1-3)Gal(b1-4)GlcNAc(b1-3)Gal(b1-4)GlcNAc(b1-2)Man(a1-3)[GlcNAc(b1-3)Gal(b1-4)GlcNAc(b1-3)Gal(b1-4)GlcNAc(b1-3)Gal(b1-4)GlcNAc(b1-2)Man(a1-6)]Man(b1-4)GlcNAc(b1-4)[Fuc(a1-6)]GlcNAc
# Summary of the method: as §1
# [33] = target: GlcNAc(b1-3)Gal(b1-4)GlcNAc(b1-3)Gal(b1-4)GlcNAc(b1-3)Gal(b1-4)GlcNAc(b1-2)[GlcNAc(b1-3)Gal(b1-4)GlcNAc(b1-3)Gal(b1-4)GlcNAc(b1-3)Gal(b1-4)GlcNAc(b1-6)]Man(a1-6)[GlcNAc(b1-3)Gal(b1-4)GlcNAc(b1-3)Gal(b1-4)GlcNAc(b1-3)Gal(b1-4)GlcNAc(b1-2)Man(a1-3)]Man(b1-4)GlcNAc(b1-4)[Fuc(a1-6)]GlcNAc
# Summary of the method: as §1
# [34] = target: GlcNAc(b1-3)Gal(b1-4)GlcNAc(b1-3)Gal(b1-4)GlcNAc(b1-3)Gal(b1-4)GlcNAc(b1-3)Gal(b1-4)GlcNAc(b1-2)Man(a1-3)[GlcNAc(b1-3)Gal(b1-4)GlcNAc(b1-3)Gal(b1-4)GlcNAc(b1-3)Gal(b1-4)GlcNAc(b1-3)Gal(b1-4)GlcNAc(b1-2)Man(a1-6)]Man(b1-4)GlcNAc(b1-4)GlcNAc
# Summary of the method: as §1
# [35] = target: GlcNAc(b1-3)Gal(b1-4)GlcNAc(b1-3)Gal(b1-4)GlcNAc(b1-3)Gal(b1-4)GlcNAc(b1-3)Gal(b1-4)GlcNAc(b1-2)Man(a1-3)[GlcNAc(b1-3)Gal(b1-4)GlcNAc(b1-3)Gal(b1-4)GlcNAc(b1-3)Gal(b1-4)GlcNAc(b1-3)Gal(b1-4)GlcNAc(b1-2)Man(a1-6)]Man(b1-4)GlcNAc(b1-4)[Fuc(a1-6)]GlcNAc
# Summary of the method: as §1
binder,measurement,setting,value
B1,glycan array binding signal (z-score),[1],-0.37
same,glycan array binding signal (z-score),[2],-0.409
same,glycan array binding signal (z-score),[3],-0.192
same,glycan array binding signal (z-score),[4],-0.118
same,glycan array binding signal (z-score),[5],-0.319
same,glycan array binding signal (z-score),[6],-0.019
same,glycan array binding signal (z-score),[7],-0.483
same,glycan array binding signal (z-score),[8],0.578
same,glycan array binding signal (z-score),[9],-0.155
same,glycan array binding signal (z-score),[10],0.299
same,glycan array binding signal (z-score),[11],-0.325
same,glycan array binding signal (z-score),[12],-0.359
same,glycan array binding signal (z-score),[13],0.113
same,glycan array binding signal (z-score),[14],-0.285
same,glycan array binding signal (z-score),[15],-0.114
same,glycan array binding signal (z-score),[16],0.021
same,glycan array binding signal (z-score),[17],-0.505
same,glycan array binding signal (z-score),[18],-0.311
same,glycan array binding signal (z-score),[19],-0.647
same,glycan array binding signal (z-score),[20],0.625
same,glycan array binding signal (z-score),[21],-0.219
same,glycan array binding signal (z-score),GlcNAc(b1-3)Fuc,0.485
same,glycan array binding signal (z-score),GlcNAc(b1-3)Gal,-0.179
same,glycan array binding signal (z-score),[22],-0.191
same,glycan array binding signal (z-score),GlcNAc(b1-3)Gal(b1-4)Glc,-0.047
same,glycan array binding signal (z-score),[23],-0.316
same,glycan array binding signal (z-score),[24],-0.204
same,glycan array binding signal (z-score),[25],-0.201
same,glycan array binding signal (z-score),[26],0.853
same,glycan array binding signal (z-score),[27],-0.116
same,glycan array binding signal (z-score),[28],0.543
same,glycan array binding signal (z-score),[29],0.426
same,glycan array binding signal (z-score),[30],0.007
same,glycan array binding signal (z-score),[31],0.127
same,glycan array binding signal (z-score),[32],0.243
same,glycan array binding signal (z-score),[33],0.731
same,glycan array binding signal (z-score),[34],0.642
same,glycan array binding signal (z-score),[35],0.021
